Screen size: about 45,000 compounds; about 65 (0.1%) were called active. Calls come from the whole dose curve; as a rule, active = well fitted activation curve with a large enough effect; inconclusive = small, poorly fitted or top-dose-only effect; inactive = no such curve, though single readings can be large or run the other way. This is one part of the list.
Target: Galactocerebrosidase (Homo sapiens) (UniProt P54803)
Experiment: A Novel Cell-Based Assay to Identify Small Molecules for B -Galactocerebrosidase; note: 0% is about no effect; nearly all actives have a fitted effect of over 65% in size
Settings: 145M-Twi-hGALC-G270D cells (Twitcher mouse brain line with human GALC G270D), HMU-beta-Gal fluorescence, 48 h; series mostly up to 57.5 µM; activation: at the top concentration
Outline: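 Mutant human GALC (G270D), stably expressed in a Twitcher mouse brain cell line lacking endogenous GALC, is measured in live-treated cells via 6-hexadecanoylamino-4-methylumbelliferyl-β-galactoside hydrolysis (0.1 mM final, pH 5.2) with fluorescent detection.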

Chain of UniProt P54803 (P54803 whole entry, looked up): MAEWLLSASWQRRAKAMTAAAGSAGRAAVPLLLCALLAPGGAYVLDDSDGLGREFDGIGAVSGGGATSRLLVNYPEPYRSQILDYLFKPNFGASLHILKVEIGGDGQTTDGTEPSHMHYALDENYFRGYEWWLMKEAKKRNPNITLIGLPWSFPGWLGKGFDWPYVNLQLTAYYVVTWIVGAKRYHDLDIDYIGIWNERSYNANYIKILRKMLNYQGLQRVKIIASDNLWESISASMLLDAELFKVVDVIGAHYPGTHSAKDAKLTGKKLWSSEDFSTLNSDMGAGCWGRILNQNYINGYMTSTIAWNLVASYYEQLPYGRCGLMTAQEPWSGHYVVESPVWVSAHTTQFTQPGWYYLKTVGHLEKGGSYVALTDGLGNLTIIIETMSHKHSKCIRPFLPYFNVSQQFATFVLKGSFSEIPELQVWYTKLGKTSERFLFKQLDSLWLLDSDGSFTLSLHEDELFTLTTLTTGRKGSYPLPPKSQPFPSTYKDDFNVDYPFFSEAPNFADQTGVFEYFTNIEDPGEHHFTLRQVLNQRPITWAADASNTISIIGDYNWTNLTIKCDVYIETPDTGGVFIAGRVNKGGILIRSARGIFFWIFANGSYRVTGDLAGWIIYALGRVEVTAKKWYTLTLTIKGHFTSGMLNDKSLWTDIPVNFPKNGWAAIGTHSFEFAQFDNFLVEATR

activation, inactive:
CC(CNC(=O)CN1C(=O)COc2ccc(S(=O)(=O)N3CCCCCC3)cc21)c1ccccc1 (stereo unspecified) -1.46%
COc1ccc(CCNC(=O)c2cccc(-n3cnc4cccnc43)c2C)cc1OC -23.1%
CCCCNC(=O)c1nn(-c2ccc(C)cc2)c(=O)n(C)c1=O -9.67%
Cc1ccc(Cl)cc1NC(=O)C1CCCN(S(=O)(=O)c2cccc3cccnc23)C1 (stereo unspecified) -13.8%
COc1ccc(N2C(=O)CS(=O)(=O)C23C(=O)N(Cc2ccc(F)cc2)c2ccc(C)cc23)cc1 (stereo unspecified) -28.5%
COc1ccccc1CNC(=O)CSc1nc2nc(C)c(Cc3ccccc3Cl)c(C)n2n1 -0.66%
Cc1ccccc1NC(=O)c1c(NC(=O)c2ccco2)sc2c1CCC(C(C)(C)C)C2 (stereo unspecified) -10.9%
CCC(=O)N1CCc2cc(Br)cc(S(=O)(=O)N3CCCC(C(=O)Nc4cccc(C)c4C)C3)c21 (stereo unspecified) -4.16%
Cc1ccccc1CNC(=O)c1cccc(NC(=O)N2CCSc3ncccc32)c1 -2.95%
CCOC(=O)c1c(S(=O)(=O)N2CCCC(C(=O)Nc3cccc(C#N)c3)C2)c(C)n(C)c1C (stereo unspecified) -19.6%
CC(Oc1ccccc1)C(=O)Nc1ccc(OCc2cc(=O)n3ccsc3n2)cc1 (stereo unspecified) -15.8%
Cn1c(=O)c2c(SCC(=O)NCc3ccco3)nc(-c3cccc(F)c3)nc2n(C)c1=O -12.3%
CCOc1ccc(CC(=O)Nc2c(C(=O)Nc3ccc(OC)cc3OC)oc3ccccc23)cc1 -9.35%
Cc1ccc(S(=O)(=O)c2cn(CC(=O)Nc3ccccc3C)c3cc4c(cc3c2=O)OCO4)cc1 -10.8%
Cc1cc2c(cc1S(=O)(=O)N(C)CC(=O)Nc1ccc(C#N)cc1)OCC(=O)N2 -9.37%
NS(=O)(=O)c1ccc(CCNC(=O)c2ccc3nc(CCc4ccccc4)oc3c2)cc1 -18.6%
CCOC(=O)c1c(S(=O)(=O)NCC(=O)Nc2ccc(C)c(N(C)C)c2)c(C)n(C)c1C -9.31%
C[C@H](N)[C@H](O)c1cccc(O)c1 -14.5%
COc1ccc(-c2nc3cc(C)ccn3c2NC(=O)c2ccc(F)cc2)cc1 -11.2%
CCOc1ccc(CCNC(=O)c2nc(-c3cccc(F)c3)n3c2CCCCC3)cc1OCC -21.3%
CCOc1ccc(CNC(=O)c2cnc3sc(N4CCOCC4)nn3c2=O)cc1OC 0.683%
CC(C)c1nc2ccc(C(=O)NCCCN3CCN(c4cccc(Cl)c4)CC3)cc2o1 -8.72%
Cc1cccc(N2CCN(C(=O)CN3C(=O)COc4ccc(S(=O)(=O)N5CCC(C)CC5)cc43)CC2C)c1 (stereo unspecified) -7.66%
CCOC(=O)N1CCN(Cc2nc3cc([N+](=O)[O-])ccc3n2C(C)C)CC1 -16.6%
Cc1ccc2scc(N3CCC(C)CC3)c(=O)c2c1 -8.38%
CCOC(=O)C1CCC(CN(Cc2ccc(Cl)cc2)S(=O)(=O)c2cc(Cl)cc(Cl)c2)CC1 (stereo unspecified) -8.66%
Cc1cccc(N2CCN(C(=O)C3CCCN(S(=O)(=O)c4ccc(Br)s4)C3)CC2)c1C (stereo unspecified) -22.8%
COc1cccc(NS(=O)(=O)c2ccc3c(c2)[C@H]2C=CC[C@H]2[C@@H](c2ccccc2Cl)N3)c1 -9.72%
CCOc1ccccc1NC(=O)CCn1cnnn1 -13.9%
Cc1[nH]c2ccccc2c1C(c1ccccc1)c1ccc(Cl)s1 (stereo unspecified) -16.7%
CN=C(NC#N)Nc1ccc(C2=NNC(=O)CC2C)cc1 (stereo unspecified) -6.04%
COc1cccc(CNC(=O)Cc2ccc(NC(=O)N3CCSc4ncccc43)cc2)c1OC -9.02%
Cc1cccn2c(Nc3ccccc3)c(-c3cccs3)nc12 -25.8%
COc1ccccc1NC(=O)CSc1nc2nccnc2c(=O)n1CCc1c[nH]c2ccccc12 2.2%
CCN(CC)CCNC(=O)CSc1nc2nc(C)c(Cc3ccccc3)c(C)n2n1 -8.99%
O=C(CCC1CCCC1)N1CCc2c([nH]c3ccccc23)C1c1ccc(Cl)cc1 (stereo unspecified) -20.4%
CCc1cccc(C)c1NS(=O)(=O)c1cc(-c2cc(C)no2)ccc1C -16.8%
Cc1ccc(-n2nnc(-c3nsc(NC(=O)c4ccccc4)n3)c2C)cc1 -10.3%
Cc1ccc(-n2nc3ccc(NC(=O)c4oc5ccc(C)cc5c4C)cc3n2)cc1 -7.74%
CCOc1ccc(OCC(=O)NCCS(=O)(=O)N2CCN(c3ccc(F)cc3)CC2)cc1 5.26%
Cc1cc(C(F)F)n2nc(C(=O)Nc3cc(Cl)ccc3C)nc2n1 -11.2%
CCOC(=O)C1CCCN(S(=O)(=O)c2ccc(N3CCCCS3(=O)=O)cc2)C1 (stereo unspecified) -7.85%
CC1CCc2noc(NC(=O)c3ccccc3[N+](=O)[O-])c2C1 (stereo unspecified) -4.95%
CCCOc1ccccc1C(=O)N1CCCCC1CCN1CCOCC1 (stereo unspecified) -8.5%
O=C(Nc1ccccc1F)c1nc(SCc2ccc(F)cc2)ncc1Cl -7.17%
CCN(C(=O)Cn1ncc2c(=O)oc3ccc(C)cc3c21)c1cc(OC)ccc1OC -10.6%
O=C(Nc1ccc2nc(SCCOc3ccccc3)sc2c1)c1cccs1 -14.5%
COc1ccccc1CNC(=O)C1CCN(S(=O)(=O)c2c(C)noc2/C=C/c2c(C)cc(C)cc2C)CC1 -16%
O=C(Nc1ccc(C(F)(F)F)cc1)c1cc(S(=O)(=O)NC2CCCCC2)ccc1F -13.4%
CCCN1C(=O)C(O)(CC(=O)c2ccc(OC)c(OC)c2)c2ccccc21 (stereo unspecified) -12.7%
CN1CCN(C(=O)c2ccc3c(c2)N(Cc2cccc(Cl)c2)C(=O)c2ccccc2S3(=O)=O)CC1 -12.9%
CCc1ccc(NC(=O)c2ccc(F)c(S(=O)(=O)NC3CCCCCC3)c2)cc1 -5.49%
COc1cccc(CNC(=O)CSc2ncc3c(n2)-c2cc(Cl)ccc2N(C)S3(=O)=O)c1 -20.3%
Cc1c(Cl)cccc1NC(=O)CN1C(=O)COc2ccc(S(=O)(=O)N3CCCCCC3)cc21 -5.29%
CCOc1ccccc1NC(=O)c1sc2nc(C)cc(C)c2c1N -20.5%
Cc1coc2c(C)c3oc(=O)c(CC(=O)NCc4ccccc4)c(C)c3cc12 -5.1%
CCOC(=O)c1cnc2c(C)cc(C)cc2c1NCCc1ccc(OC)c(OC)c1 -9.97%
Cc1cccc(C)c1NC(=O)c1nc(S(C)(=O)=O)ncc1N(Cc1ccc(F)cc1)Cc1ccco1 -2.13%
COc1cccc(CNC(=O)CN2C(=O)CSc3c2c(C)nn3-c2ccccc2)c1OC -12.8%
COc1ccc(CNC(=O)Cn2c(=O)oc3cc(S(=O)(=O)N4CCC(C)CC4)ccc32)cc1 -40.4%
Cc1ccc(Cl)cc1-n1c(=O)c2sc3ccccc3c2n(CC(=O)NC2CCCCC2)c1=O -8.74%
Cc1ccc(C)n1-c1c(C(=O)NCC(C)c2ccccc2)sc2ncccc12 (stereo unspecified) -10.3%
O=c1c2sc3ccccc3c2n(Cc2ccccc2Cl)c(=O)n1Cc1ccccc1 -6.68%
COc1ccc(C(=O)N(Cc2ccc(N(C)C)cc2)Cc2ccco2)cc1Cl -18.2%
Cc1cc(-c2ccc(C)c(S(=O)(=O)Nc3ccccc3C(F)(F)F)c2)on1 -31.2%
Cc1ccc2c(CC(=O)NCc3ccccc3)coc2c1C -24.2%
CCOC(=O)c1c(C)[nH]c(CCC(=O)NCCCN2CCN(c3cc(Cl)ccc3C)CC2)c1C -13.3%
Cc1c(CCNC(=O)Cc2ccc(F)cc2)sc2nc(-c3ccc(F)cc3)nn12 -10.4%
CCCCN(C)CCNC(=O)C1CCCN(S(=O)(=O)c2ccc3c(c2)oc(=O)n3C)C1 (stereo unspecified) -2.69%
O=C(Cn1c(=O)c2ccccc2n(CC(=O)Nc2ccc(Cl)cc2)c1=O)NCCc1ccccc1 -25.6%
CCc1ccccc1NC(=O)Cn1c(=O)n(CCCS(=O)(=O)C2CCCCC2)c(=O)c2ccccc21 10.8%
COc1ccc(NC(=O)CCCn2c(=O)c3cccn3c3ccccc32)c(OC)c1 -2.64%
COc1ccc(C(=O)Oc2c(Sc3ccc(Cl)cc3)c(C)nn2C(C)(C)C)cc1OC -12%
O=C(NCCc1csc(-c2ccc(C(F)(F)F)cc2)n1)C(=O)Nc1cc(F)ccc1F -15.4%
Cc1ccccc1NS(=O)(=O)c1nnc(NC(=O)c2ccc(Cl)cc2)s1 -19.4%
CCOC(=O)c1[nH]c(C)c(CCC(=O)Nc2ccc(C(C)=O)cc2)c1C -18.4%
O=C1C(c2cccc(Br)c2)N(CCc2ccccc2)C(=O)CN1C1CCCCC1 (stereo unspecified) -8.22%
CCOc1cccc(CNCCNC(=O)c2nonc2N)c1 16.2%
Cc1cccc(CNS(=O)(=O)c2csc(C(N)=O)c2)c1 -6.84%
CCOc1ccc(C(=O)Nc2cccc(OCc3cc(=O)n4ccccc4n3)c2)cc1 -8.27%
CCN(CC)C(=O)Cn1cc(SCC(=O)Nc2cccc(F)c2)c2ccccc21 -18.2%
COc1ccc(C(CC(=O)O)NC(=O)c2cc3ccccc3oc2=O)cc1OC (stereo unspecified) -10.1%
Cc1ccc(S(=O)(=O)c2cnc(SCC(=O)Nc3cccc(Cl)c3)nc2N)cc1C -14.1%
Cc1ccc(C2c3c(-c4cc(C)ccc4O)n[nH]c3C(=O)N2Cc2ccco2)cc1 (stereo unspecified) -9.59%
O=C(Nc1cccc2cccnc12)c1ccccc1[N+](=O)[O-] -3.65%
Oc1ccc(Nc2nc3ccccc3n3cnnc23)cc1 1.75%
Cc1cccc(Cn2c(=O)n(Cc3ccc(C(=O)NC4CCN(Cc5ccccc5)CC4)cc3)c(=O)c3ccccc32)c1 -8.52%
CCOC(=O)c1cnc2c(C)cc(C)cc2c1Nc1cccc(C(=O)O)c1 -11.7%
CCOCCCNC(=O)CN1C(=O)COc2ccc(S(=O)(=O)N3CCCCCC3)cc21 -6.96%
CCc1cccc(C)c1NC(=O)CCCn1c(=O)c2cccn2c2cccnc21 -13.2%
CC(C(=O)NCc1ccccc1Cl)n1ccc2cc(S(=O)(=O)N3CCCCC3)ccc21 (stereo unspecified) 8.98%
CC(=O)c1ccc(N2CCN(c3ccc(NC(=O)c4cccs4)cc3C(=O)O)CC2)cc1 15.8%
Cc1ccc(NC(=O)CSc2nnc3nc(C)cc(C)n23)cc1 10.9%
Cc1cccc(Cn2ccn(Cc3ccc(Cl)cc3)c(=O)c2=O)c1 -16.8%
O=c1c2ccccc2n2c(-c3ccccc3O)nnc2n1Cc1ccc(F)cc1 -14.6%
Cc1ccc(C)c(NC(=O)CN2C(=O)c3cccc4cccc2c34)c1 5.34%

Source: PubChem BioAssay AID1159614 (National Center for Advancing Translational Sciences (NCATS), 2016)
